The text below walks through data of paper PMC4199508.

Substitutions are numbered along the chain they refer to. Names may count otherwise. Results are given in words; binding and its absence hold for the method and conditions named. For part of these data: Binding seen in cells or lysates may run through a third protein. Some binding calls cover weakened binding; strength is not graded here. Sequences can lack the tags named with a protein.

The labels stand for the following.
T1: Pot1 of fission yeast whole cell extract (held on telomeric G-oligo beads) (Schizosaccharomyces pombe (endogenous in fission yeast extract)) (UniProt O13988)
T1 sequence: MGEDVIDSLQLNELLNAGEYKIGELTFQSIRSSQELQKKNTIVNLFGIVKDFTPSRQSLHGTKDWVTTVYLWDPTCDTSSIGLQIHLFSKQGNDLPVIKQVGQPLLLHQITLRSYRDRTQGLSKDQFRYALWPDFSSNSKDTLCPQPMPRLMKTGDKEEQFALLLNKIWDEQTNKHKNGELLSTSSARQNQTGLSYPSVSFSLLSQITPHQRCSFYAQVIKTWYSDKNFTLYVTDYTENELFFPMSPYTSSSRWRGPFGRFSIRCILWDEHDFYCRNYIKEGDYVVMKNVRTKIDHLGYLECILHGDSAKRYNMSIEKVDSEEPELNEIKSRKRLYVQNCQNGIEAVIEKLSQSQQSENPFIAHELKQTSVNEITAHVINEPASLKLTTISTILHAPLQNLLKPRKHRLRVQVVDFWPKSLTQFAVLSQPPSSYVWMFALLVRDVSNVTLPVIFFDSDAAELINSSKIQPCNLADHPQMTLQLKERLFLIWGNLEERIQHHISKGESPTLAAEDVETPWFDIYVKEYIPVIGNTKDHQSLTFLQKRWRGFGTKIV

T2: Pot1 (yeast two-hybrid construct) (Schizosaccharomyces pombe) (UniProt O13988)
T2 sequence: T1 sequence

T3: Poz1 (yeast two-hybrid construct) (Schizosaccharomyces pombe) (UniProt O13852)
T3 sequence: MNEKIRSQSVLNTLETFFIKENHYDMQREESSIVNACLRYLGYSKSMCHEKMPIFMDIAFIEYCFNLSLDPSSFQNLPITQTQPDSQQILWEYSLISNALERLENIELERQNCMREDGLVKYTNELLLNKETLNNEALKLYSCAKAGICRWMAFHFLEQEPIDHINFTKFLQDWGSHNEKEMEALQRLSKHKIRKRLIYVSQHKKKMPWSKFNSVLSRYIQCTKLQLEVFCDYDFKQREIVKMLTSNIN

B1: Tpz1-myc (full length Tpz1, Tpz1-FL, expressed in fission yeast) (protein, UniProt O14246 1-508)
chain: MSNCLKHPWLENGLLNLIKNADVLPIRVFKCQPLQIFEYIRYEHPIRCKLSDTEFYIEAEFSSQSISDLNNFTEKRITSLRGGIVTLGNFLIHLIPSQSGIIPWIQVESFNFQGCEGAVFGNPKAITTSALFNALLQSPYLAALANEFNRSIKEGSSYQEASLSQQEKPNDNTSNSRDIKNNIQFHWKNMTSLSIEECIIPKGQQLILEKESEENTTHGIYLEERKMAQGLHNSVSETPEVKQEDNDEDLDAYSWSSSTDSAGEIPSLPTNRKILEKIAEKPPPFESPLEDDETPDQTNEHEANQVNVSQLPLNPRGSGISGRPVESTEQLNSSLTIERSQSIQSTDSKQRVETQSHRRSKIEIFDAQDELFDRSICTTIDDSTGKLLNAEETPIKTGDLHSTSASSVISCTPPAINFTSDICNEQIELEYKRKPIPDYDFMKGLETTLQELYVEHQSKKRRLELFQLTNNHQKNSEACEMCRLGLPHGSFFELLRDWKKIEEFRNKS
B2: Tpz1-L449R,W498R,I501R (expressed in fission yeast) (protein, UniProt O14246 1-508)
chain: B1 chain with L449R, W498R, I501R
B3: Tpz1-[1–485]-L449R (expressed in fission yeast) (domain or fragment, UniProt O14246 1-485)
chain: MSNCLKHPWLENGLLNLIKNADVLPIRVFKCQPLQIFEYIRYEHPIRCKLSDTEFYIEAEFSSQSISDLNNFTEKRITSLRGGIVTLGNFLIHLIPSQSGIIPWIQVESFNFQGCEGAVFGNPKAITTSALFNALLQSPYLAALANEFNRSIKEGSSYQEASLSQQEKPNDNTSNSRDIKNNIQFHWKNMTSLSIEECIIPKGQQLILEKESEENTTHGIYLEERKMAQGLHNSVSETPEVKQEDNDEDLDAYSWSSSTDSAGEIPSLPTNRKILEKIAEKPPPFESPLEDDETPDQTNEHEANQVNVSQLPLNPRGSGISGRPVESTEQLNSSLTIERSQSIQSTDSKQRVETQSHRRSKIEIFDAQDELFDRSICTTIDDSTGKLLNAEETPIKTGDLHSTSASSVISCTPPAINFTSDICNEQIELEYKRKPIPDYDFMKGLETTRQELYVEHQSKKRRLELFQLTNNHQKNSEACEMCRLG
B4: Tpz1-FL Y439R,L445R (yeast two-hybrid construct) (protein, UniProt O14246 1-508)
chain: B1 chain with Y439R, L445R
B5: Tpz1-FL L449R (yeast two-hybrid construct) (protein, UniProt O14246 1-508)
chain: B1 chain with L449R
B6: Tpz1-FL (full length Tpz1, yeast two-hybrid construct) (protein, UniProt O14246 1-508)
chain: B1 chain
B7: Tpz1-FL W498A,I501A (yeast two-hybrid construct) (protein, UniProt O14246 1-508)
chain: B1 chain with W498A, I501A

The first experiment has as its target T1, Pot1 of fission yeast whole cell extract (held on telomeric G-oligo beads) (Schizosaccharomyces pombe (endogenous in fission yeast extract)). Nature of the experiment: pull-down; biotinylated telomeric G-tail oligo on streptavidin magnetic beads incubated with 2 mg fission yeast whole cell extract, 2 h 4°C, 150 mM NaCl lysis buffer; Pot1-dependent recovery of Tpz1 seen by western blot; wild type also in ccq1Δ poz1Δ cells. Background: Immunoblotting shows a protein as a band on a membrane.
For B1, the binding entry was “binds”. Regarding B2, the binding entry is “binds”.

Turning to B3, the binding result is “binds”.

The target in the next experiment is T2, Pot1 (yeast two-hybrid construct) (Schizosaccharomyces pombe). Nature of the experiment: two-hybrid; S. cerevisiae Y2HGold with GAL4-DBD plasmids mated with Y187 with GAL4-AD plasmids; positive interaction by growth on -His -Ade plates (Figures S1B and S2B also -His +5 mM 3AT).
For the molecule B4, the binding result was “binds”. Still for that read-out and setting: for B5 the value was “binds”. Still for that read-out and setting: for B6 the value was “binds”.

For a further experiment, the target named is T3, Poz1 (yeast two-hybrid construct) (Schizosaccharomyces pombe). The description is as above.
For the molecule B7, the binding result is “binds”.

On to B4, for which the binding result is “binds”. Same read-out and setting: for B5 the value was “binds”; for B6, “binds”; for LPHGSFFELLRDRKKREEFRNKS (domain or fragment, UniProt O14246 486-508) [Tpz1-[486–508] W498R,I501R (yeast two-hybrid construct)], “no binding”. The same measure, in the same setting: for LPHGSFFELLRDWKKIEEFRNKS (domain or fragment, UniProt O14246 486-508) [Tpz1-[486–508] (minimum Poz1 interaction domain construct, yeast two-hybrid)] the value was “binds”.
